One experiment concerns HSkMC. Nature of the experiment: cytotoxicity call (relative viability < 0.9). The settings on record: 10 µM.
In a further experiment the test system is HepG2. Kind of experiment: cytotoxicity call (relative viability < 0.9). As to conditions: 10 µM.
For another experiment, the system named is S. aureus RN4220. Nature of the experiment: growth inhibition call (relative growth <= 0.2). As to conditions: 50 µM.

Molecules are shown by their SMILES. This is one part of the list.

`C[C@@H]1CN([C@H](C)CO)C(=O)c2cccc(NS(C)(=O)=O)c2O[C@H]1CN(C)S(=O)(=O)c1ccc(F)cc1`: the cytotoxicity call with HSkMC and in the experiment on HepG2 was “inactive” throughout. The growth inhibition call with S. aureus RN4220 was “inactive”.

Turning to `CC(C)C[C@H](NC(=O)N1CCCCCC1)C(=O)N[C@H](Cc1cn(C)c2ccccc12)C(=O)N[C@H](Cc1ccccn1)C(=O)O`, the cytotoxicity call in the experiment with HSkMC and in the experiment with HepG2 was “inactive” in each case. Further, in the experiment with S. aureus RN4220, the growth inhibition call is “inactive”.

With `Cc1ccc(S(=O)(=O)N(C)C[C@@H]2Oc3c(NC(=O)c4cc(C)nn4C)cccc3C(=O)N([C@H](C)CO)C[C@H]2C)cc1`, the cytotoxicity call in the experiment on HSkMC and with HepG2 was “inactive” throughout. For the same molecule, the growth inhibition call with S. aureus RN4220 is “inactive”.

On to `CCCNC(=O)C[C@@H]1CC[C@H]2[C@H](COc3ccc(NS(=O)(=O)c4ccccc4C)cc3C(=O)N2C)O1`, for which the cytotoxicity call in the experiment on HSkMC and in the experiment with HepG2 was “inactive” throughout. Besides, the growth inhibition call in the experiment with S. aureus RN4220 was “inactive”.

Take `COc1cccc(S(=O)(=O)N(C)C[C@@H]2OCc3cnnn3CCCC(=O)N([C@@H](C)CO)C[C@H]2C)c1`: the cytotoxicity call in the experiment on HSkMC and in the experiment with HepG2 was “inactive” throughout. In addition, the growth inhibition call in the experiment with S. aureus RN4220 was “inactive”.

On to `COc1ccc(S(=O)(=O)N(C)C[C@@H]2Oc3ccc(NC(=O)Cn4cnnn4)cc3C(=O)N([C@H](C)CO)C[C@@H]2C)cc1`, for which the cytotoxicity call in the experiment on HSkMC and in the experiment on HepG2 was “inactive” each time. Moreover, in the experiment on S. aureus RN4220, the growth inhibition call was “inactive”.

`C[N+]1(C)C[C@@H](O)C[C@H]1C(=O)O`: the cytotoxicity call in the experiment with HSkMC and in the experiment on HepG2 was “inactive” throughout. For the same molecule, the growth inhibition call with S. aureus RN4220 is “inactive”.

As to `COCCOC(=O)N1C(=O)[C@@]2(c3cc(C#CCCO)ccc31)[C@H](C(=O)N1CCc3cc(OC)c(OC)cc3C1)[C@H]1C(=O)O[C@H](c3ccccc3)[C@H](c3ccccc3)N1[C@@H]2c1ccccc1OCCO`, in the experiment with HSkMC, the cytotoxicity call is “inactive”. Further, the cytotoxicity call in the experiment with HepG2 is “active”. Also, the growth inhibition call in the experiment on S. aureus RN4220 is “inactive”.

Regarding `C[C@@H]1CCCCO[C@H](CN(C)CC2CC2)[C@@H](C)CN([C@H](C)CO)C(=O)c2cc(NC(=O)Nc3ccc(F)cc3)ccc2O1`, the cytotoxicity call with HSkMC and with HepG2 was “inactive” throughout. Moreover, the growth inhibition call with S. aureus RN4220 is “inactive”.

Take `Cc1ccc(S(=O)(=O)Nc2ccc3c(c2)C(=O)N([C@H](C)CO)C[C@H](C)[C@H](CN(C)C(=O)NC2CCCCC2)OCCCC[C@@H](C)O3)cc1`: the cytotoxicity call in the experiment with HSkMC and in the experiment with HepG2 was “inactive” in each case. In the experiment on S. aureus RN4220, the growth inhibition call was “inactive”.

Consider `COCC(=O)N1CC[C@]2(CC1)CN([C@@H](CO)c1c2c2ccc(cc2n1C)OC)C(=O)Nc1ccccc1F`, for which the cytotoxicity call with HSkMC and in the experiment on HepG2 was “inactive” throughout. The growth inhibition call with S. aureus RN4220 was “inactive”.

As for `COc1cccc(S(=O)(=O)Nc2ccc3c(c2)[C@@H]2C[C@H](CC(=O)NCC(F)(F)F)O[C@@H](CO)[C@@H]2O3)c1`, the cytotoxicity call in the experiment on HSkMC and in the experiment on HepG2 was “inactive” in each case. Besides, in the experiment on S. aureus RN4220, the growth inhibition call is “inactive”.

For the molecule `Nc1ncnc2c1ncn2[C@@H]1O[C@H](COP(=O)(O)OP(=O)(O)OP(=O)(O)OP(=O)(O)OC[C@H]2O[C@@H](n3cnc4c(N)ncnc43)[C@H](O)[C@@H]2O)[C@@H](O)[C@H]1O`, the cytotoxicity call in the experiment with HSkMC was “inactive”. In the experiment with HepG2, the cytotoxicity call is “active”. Moreover, the growth inhibition call with S. aureus RN4220 was “inactive”.

In the case of `C[C@H](CO)N1C[C@H](C)[C@H](CN(C)C(=O)NC2CCCCC2)Oc2ccc(NC(=O)CCN3CCOCC3)cc2C1=O`, the cytotoxicity call with HSkMC and with HepG2 was “inactive” throughout. In addition, in the experiment with S. aureus RN4220, the growth inhibition call is “inactive”.

Turning to `C[C@@H]1CN([C@@H](C)CO)C(=O)Cc2cc(NS(=O)(=O)c3cccs3)ccc2O[C@@H]1CN(C)S(=O)(=O)c1ccccc1`, the cytotoxicity call in the experiment with HSkMC and with HepG2 was “inactive” each time. For the same molecule, in the experiment on S. aureus RN4220, the growth inhibition call was “inactive”.

Take `C[C@@H]1CCCCO[C@H](CN(C)S(=O)(=O)c2ccccc2)[C@H](C)CN([C@@H](C)CO)C(=O)c2cc(NS(C)(=O)=O)ccc2O1`: the cytotoxicity call in the experiment with HSkMC and with HepG2 was “inactive” in each case. The growth inhibition call in the experiment with S. aureus RN4220 is “inactive”.

As to `CCN(CC)CCCCNc1ncc2cc(-c3cc(OC)cc(OC)c3)c(NC(=O)NC(C)(C)C)nc2n1`, the cytotoxicity call in the experiment on HSkMC and in the experiment with HepG2 was “active” throughout. For the same molecule, in the experiment on S. aureus RN4220, the growth inhibition call is “inactive”.

As to `O=C(C[C@@H]1C[C@@H]2c3cc(NS(=O)(=O)c4ccc(F)cc4)ccc3O[C@@H]2[C@H](CO)O1)NCCN1CCCCC1`, the cytotoxicity call with HSkMC and with HepG2 was “inactive” throughout. Also, the growth inhibition call with S. aureus RN4220 was “inactive”.

Consider `Cn1cnc(S(=O)(=O)N[C@H]2C=C[C@H](CC(=O)N3CCN(c4ccccc4)CC3)O[C@@H]2CO)c1`, for which the cytotoxicity call in the experiment with HSkMC and with HepG2 was “inactive” each time. Moreover, the growth inhibition call in the experiment on S. aureus RN4220 is “inactive”.

Turning to `C[C@H](CO)N1C[C@H](C)[C@@H](CN(C)Cc2ccc(-c3ccccc3)cc2)Oc2c(NC(=O)Nc3cccc4ccccc34)cccc2C1=O`, the cytotoxicity call in the experiment on HSkMC and with HepG2 was “inactive” each time. Also, the growth inhibition call in the experiment on S. aureus RN4220 is “inactive”.

For the molecule `C[C@@H]1CN([C@H](C)CO)C(=O)c2cccc(NC(=O)Nc3cccc4ccccc34)c2O[C@@H]1CN(C)Cc1ccc2c(c1)OCO2`, the cytotoxicity call in the experiment on HSkMC and in the experiment on HepG2 was “inactive” throughout. In the experiment on S. aureus RN4220, the growth inhibition call was “inactive”.

As to `Cc1ccc(S(=O)(=O)N[C@@H]2CC[C@@H](CC(=O)NCc3ccc(Cl)c(Cl)c3)O[C@H]2CO)cc1`, the cytotoxicity call in the experiment with HSkMC and with HepG2 was “inactive” in each case. In the experiment on S. aureus RN4220, the growth inhibition call was “inactive”.

Regarding `C[C@H]1CN([C@@H](C)CO)C(=O)Cc2cc(NC(=O)c3ccncc3)ccc2O[C@@H]1CN(C)S(C)(=O)=O`, the cytotoxicity call with HSkMC and in the experiment with HepG2 was “inactive” each time. In addition, the growth inhibition call in the experiment on S. aureus RN4220 was “inactive”.

For the molecule `CO[C@@H]1CN(C)C(=O)c2ccc(NC(=O)Nc3c(C)noc3C)cc2OC[C@@H](C)N(C(=O)Nc2cccc(Cl)c2)C[C@H]1C`, the cytotoxicity call in the experiment on HSkMC and in the experiment on HepG2 was “inactive” each time. Besides, the growth inhibition call in the experiment on S. aureus RN4220 was “inactive”.

Turning to `C[C@@H]1CN([C@@H](C)CO)C(=O)c2cccc(NC(=O)CCCCCC(=O)Nc3ccccc3N)c2O[C@H]1CN(C)C(=O)Nc1cccc2ccccc12`, the cytotoxicity call with HSkMC and in the experiment with HepG2 was “inactive” throughout. Further, the growth inhibition call with S. aureus RN4220 was “inactive”.

For `CCC(=O)N1C[C@]2(C1)CN([C@H](CO)c1[nH]c3cc(ccc3c12)OC)C(=O)CN1CCOCC1`, the cytotoxicity call in the experiment on HSkMC and in the experiment with HepG2 was “inactive” in each case. Further, in the experiment with S. aureus RN4220, the growth inhibition call is “inactive”.

With `C[C@H](CO)N1C[C@H](C)[C@@H](CN(C)C(=O)Nc2ccc(C(F)(F)F)cc2)OCCCC[C@H](C)Oc2ccc(NC(=O)Nc3ccc4c(c3)OCO4)cc2C1=O`, the cytotoxicity call with HSkMC and with HepG2 was “inactive” throughout. Besides, the growth inhibition call in the experiment on S. aureus RN4220 was “inactive”.

In the case of `C[C@H]1CN([C@@H](C)CO)C(=O)Cc2cc(NS(=O)(=O)c3cn(C)cn3)ccc2O[C@H]1CN(C)C(=O)Nc1ccc2c(c1)OCO2`, the cytotoxicity call in the experiment on HSkMC (human skeletal muscle cells) and with HepG2 was “inactive” in each case. Also, the growth inhibition call in the experiment with S. aureus RN4220 was “inactive”.

Source of the values: the antibiotic and cytotoxicity screens of Wong et al. (2023).
